# Measured values taken from the RNAGym collection of RNA variant scans (doi:10.1093/nar/gkz1192).
# The source gives no read counts; variants with many changes may rest on few reads.
# B1: CPEB3 Ribozyme (parent)
# chain: UAACAGGGGGCCACAGCAGAAGCGUUCACGUCGCAGCCCCUGUCAGAUUCUGGUGAAUCUGCGAAUUCUGCUGUAUAUCUC
# Variants of: B1
# Assay: self-cleavage, relative activity (ratio to wild type); higher = more cleavage; in vitro, sequencing
# In short: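 Barcoded CPEB3 ribozyme mutants, produced by rounds of error-prone PCR, self-cleaved while being transcribed with T7 RNA polymerase for 5 hours at 37°C and during a subsequent 15 min DNase I step before EDTA was added. Sequencing of template-switched cDNA on Illumina gave cleaved and total reads, and DNA sequencing assigned barcodes to variants. Each variant's relative activity is its cleaved/total read fraction divided by the unmutated ribozyme's fraction, averaged across three batches. A variant needed a minimum of 5 reads.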
row,Variant,self-cleavage
1,A5G A13G C23U U31G G33A,0.09
2,A5G A13G C40A U66C U69A,0.14
3,A5G A13G G22A U31A A57G,0.25
4,A5G A13G G24A U43A,0.17
5,A5G A13G G24A U51A G52C,0.43
6,A5G A13G G33A C50A U78C,0.35
7,A5G A13G U25C G70A,0.22
8,A5G A13G U25C U31C,0.14
9,A5G A13G U26C,0.15
10,A5G A13G U41A A45G U60C,0.19
11,A5G A13G U41A U43C A45G U69A A77G,0
12,A5G A13G U41A U51C A64U,0.12
13,A5G A13G U41C C50U,0.24
14,A5G A13G U43C A65G,0.13
15,A5G A13G U43C U72A,0.54
16,A5G A13G U48C U78C,0.56
17,A5G A13G U54C,0.66
18,A5G A13G U72A U80C,0.48
19,A5G A13U A15G G33U A35U G46U,0.09
20,A5G A13U A15U G24A A28C A35G,0.41
21,A5G A13U A20G A28G A35G U48G U76C,0.12

row,Variant,self-cleavage
1,A5G A13U A20G A47G,0.37
2,A5G A13U A20G U25C U31C A45G,0.25
3,A5G A13U A35G A45U,0.65
4,A5G A13U A35G A57G U67A,1.05
5,A5G A13U A35U A56G U66C,0.06
6,A5G A13U A45G C59U U72C U80C,0.08
7,A5G A13U C14U A45U,0.15
8,A5G A13U C23A A57G U69C C79A,0.06
9,A5G A13U C23U,0.45
10,A5G A13U C32G C37A C40U,0.09
11,A5G A13U C32G C37G A56U,0.23
12,A5G A13U C44A,0.09
13,A5G A13U C59U A64G A75U,0.39
14,A5G A13U G19U U25C U26C U41G,0.09
15,A5G A13U G24U A45G A56G,0.26
16,A5G A13U G53U,0.98
17,A5G A13U U25C U26C U51C U58G U76A,0.06
18,A5G A13U U31C U48A U54G U72C,0.16
19,A5G A13U U41A U43C,0.35
20,A5G A13U U41A U49A A56C U72A,0.09
21,A5G A13U U41C A45G U49C U72C,0.11

row,Variant,self-cleavage
1,A5G A13U U41C U49C,0.21
2,A5G A13U U48C,0.5
3,A5G A13U U51A U58C G63A,0.22
4,A5G A13U U60C U78C,0.17
5,A5G A13U U69C,0.3
6,A5G A13U U72C,0.69
7,A5G A13U U74C U76A,1.39
8,A5G A15C A18U U41C A56U,0.09
9,A5G A15C A21G U67C,0.08
10,A5G A15C A35U U41C U67C,0.31
11,A5G A15C A45U U66C U74A,0.12
12,A5G A15C U26A U41A U51C U60C,0.13
13,A5G A15G A18U A64G,0.18
14,A5G A15G A18U U60C,0.09
15,A5G A15G A20U C32U,0.17
16,A5G A15G A21G U43C,0
17,A5G A15G A21G U76G,0.39
18,A5G A15G A21U,0.59
19,A5G A15G A28G A45G U54G,0.4
20,A5G A15G A28G C62U U72C,0.27
21,A5G A15G A28G U31A U41A A56G,0

row,Variant,self-cleavage
1,A5G A15G A28U U43A A56U,0.15
2,A5G A15G A35C,0.24
3,A5G A15G A35G A45G U66C,0.11
4,A5G A15G A47C U51C,0.25
5,A5G A15G A47G U51A,0.54
6,A5G A15G A64G U80A,0.61
7,A5G A15G A64U,0.43
8,A5G A15G A75G,0.53
9,A5G A15G A75U,0.7
10,A5G A15G C17U C40U G46U C68U A77G,0.08
11,A5G A15G C37U U41A,0.44
12,A5G A15G C39U A56G,0.27
13,A5G A15G C44G C62G U66C,0.25
14,A5G A15G G46A A47G G61A A65G,0.05
15,A5G A15G U25C U51C U67C,0.21
16,A5G A15G U26A A45U U60C U67C U72A,0.05
17,A5G A15G U26C C29U A56G,0.42
18,A5G A15G U31A U41C U54C U72A,0.23
19,A5G A15G U31C A57C A64G,0.49
20,A5G A15G U41C A64G U69C U80A,0.16
